Source: the supplement of paper PMC10126150
Sequences with one replicate were seen in a single cluster, so their values are uncertain.

The sequences below were run on ATP (assay: switch fluorescence ratio, 500 uM ATP over buffer (Cy3 cluster intensity, sum of 5 cycles each) (fold (ratio)); higher = stronger signal-on switching upon ATP binding; sequences stand for … in TCGTCGGCAGCGTCAGATGTGTATAAGAGACAGTTTTTTTTTTTTTTTTTTTTTTTTT…TC). Details: aptamer strand: ATP DNA aptamer (quencher-CACCTGGGGGAGTATTGCGGAGGAAGG + anchor), 100 nM annealed; ATP concentration: 500 uM; one replicate.
In short: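 Clusters carrying Cy3-labelled switching strands on a modified Illumina MiSeq flow-cell were annealed to 100 nM quencher-labelled ATP aptamer and imaged in selection buffer. They were imaged again after 15 min with 500 uM ATP at 22 °C, over five buffer/ATP cycles with NaOH stripping and re-annealing in between. For each cluster, the fluorescence ratio is the summed Cy3 intensity of the target cycles divided by that of the buffer cycles, averaged per switch-domain sequence. Clusters outside 100-1000 RFU were left out.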
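Note: ATP exposure 15 min at 22 °C before imaging.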

Sequence	switch fluorescence ratio
GACTCGCTGC	1.79
TTTGAGCCGT	0.962
TTTGGGACCG	1.03
TCTGAATTTT	1.02
AATGCCAGCC	1.07
CCAGCCCATA	1.12
AAAGTAATCG	1.05
ATTCGGGATC	0.996
CGTTACACAT	1.05
TCCTTAGGT	0.975
GCCCCTGGAT	1.04
ACGCCTGCGA	1.11
CGGGCTCATT	1.03
GAATGACTCG	1.04
AATGAGGTCA	1.04
GAAAGGTTTG	1.44
TGGTCGCGGC	1.01
TGCGAATCGA	0.939
AGCTATCTAT	0.951
TTCAAAGCGA	1.18
AGTATGGATA	0.989
CTGATGATG	1.04
AACCAAATTT	1.08

Sequence	switch fluorescence ratio
CCAATACAGG	1.22
ATTCCGAGTT	1.31
GAGAGGGACA	0.988
CAAGTTCGG	0.913
CATGGTCAAT	1.06
CTTCAATAGT	1.07
CTTTGTTT	0.963
GCTGGACTTT	1.02
CGCGAATTGA	0.984
TTGAAACCGT	1.2
ATAGTACCT	1.21
TAAAGTTTAT	0.966
GGCACGCGAT	1.59
ACGGTTGCCT	0.992
GTGTCCAGGG	1.15
AAAAATTGAA	0.976
AGGTTAGCGG	0.943
TTGAGGTTTT	1.01
GGTACAACGT	1.03
CGACACCGCT	1.25
AAGGGAGTAG	0.963
CGGCAAGGG	1.67
CTGGGCATTA	1.16

Sequence	switch fluorescence ratio
CAATATACCC	1.13
GCACAAAACA	1.08
CGGGTGATGA	1.03
GTTTAAGTGA	0.99
CGGGTTTTAG	0.987
AGTTCTTGAG	0.965
GTAATCGCCC	1.07
AAAATTAGTA	0.992
TCATGTCCA	1.01
AAGTTGGACC	1
ACGGCGTAAT	0.956
TCTTCTGATT	0.983
GAGGTCGGAA	1
AAGGCACCGG	1.05
TTCAACAGGT	1.1
AGACACGTGG	0.962
ATTACAGAGG	0.973
GATTAAGGCC	1.01
ACTCAACGTG	1.18
ACTGTGGACT	1.04
CTGGCCTAGC	0.991
ATGACGGA	1.04
CAGCCATAAA	0.976

Sequence	switch fluorescence ratio
CGGACTGGAG	1.03
GTCGCACGAC	1.02
TAGTTGATGG	0.989
TGACGCGGTT	1.18
TACGAAACAC	1.35
GCCGGGTAGT	0.998
AACGCAAGTT	1.02
GTTCGCTATT	1.07
AGTTGGGCGT	0.972
GTTTGAAGG	1.01
GTATTTTTCT	1.04
AGATTGCGCG	1.02
GGTATAATAT	1.01
GTTTGTAGAC	1.08
CAGAGAATGA	0.994
AGTCAATT	1.04
TTTCGCCGGT	1.02
GGTGTCAGTG	1.01
GGTGCCTGAC	1.4
CTCAGCGTCC	1.31
CATAGTAGCA	1.01
ATTATAACCA	1.02
CAGAGTGATG	1

Sequence	switch fluorescence ratio
TTCGTATGAC	1.02
CCCTGTATTT	1.05
AAAGAACCCG	0.97
TATTAAGTA	0.943
ATAAGGAATA	1.03
GAAGCAGGAG	1.76
GGAAAACAGA	0.993
TGTCGGGGCT	0.994
CGTGGGTTGG	0.991
CTCACATTGG	1.06
GAGTCATAAA	0.969
TTAGAAAACC	1.02
AACAATTAAG	0.97
ATAACCGAGG	0.992
ATAAAATTTG	1.01
GGTCTTAGAG	0.958
GTTACAATAG	1.05
CGTATTCGTT	0.994
ACCCGGGCGC	0.979
GCCGTAAAGT	0.98
ACGGTACAGT	1.33
AAACGGTGCG	0.997
GGGATACAGA	1.05

Sequence	switch fluorescence ratio
GAGGCCAAAG	1.05
TATGTTCCCA	0.981
CATGGGTCGT	0.933
AGGGAGACAC	1.06
CTGTGCCCAT	1
GATACTGAG	1.06
CTTCAGTGCT	0.995
GAAGAACGCA	1.18
CGTGGGGTG	0.994
TTAACGATGG	0.957
TTGCCGATCA	1.06
TTCTGTAGAG	0.966
CGGGCGACGT	1.13
ACTAAACACA	1.1
ACACTGAGTT	1.06
GCCACCCAGC	1.05
TGTGTGTCTA	1.04
GCTCGTCCGG	1.02
AGAAATCTGT	1.01
CAGGATTAAT	0.968
TTCTGTACA	0.977
GCCGATTT	1.07
GCTTAAGATT	1.1

Sequence	switch fluorescence ratio
TAGGACGATC	1.02
AGGCGTTGCA	1.01
AGGCTGGACT	0.96
CCCTGACAAC	1.28
CGGTTTCGGC	1.03
TGCAAAAGCA	1.08
CATAAAATTT	1.01
CAACTTAGAT	0.993
GGAATGTGCT	0.973
TATGCATTTG	0.934
TTGTTAAAGG	1.03
TAATTTAAGC	0.947
AATTGGGTGG	0.995
GCAACTAGTG	1.04
TCTATGGGTT	1.02
GGACGTTTGA	1.04
ACCCAAAGTA	1.02
CTGGCACGAA	0.995
GCCGCAAGCT	2.22
